Results on 48 compounds are retold here after PubChem BioAssay AID1159614 (National Center for Advancing Translational Sciences (NCATS), 2016).

Molecules are shown by their SMILES. In all, about 45,000 compounds went through this assay and about 65 (0.1%) were called active. Calls come from the whole dose curve; as a rule, active = well fitted activation curve with a large enough effect; inconclusive = small, poorly fitted or top-dose-only effect; inactive = no such curve, though single readings can be large or run the other way. Some of the results follow.

In this experiment the target is Galactocerebrosidase (Homo sapiens) (UniProt P54803). The experiment is described as follows: A Novel Cell-Based Assay to Identify Small Molecules for B -Galactocerebrosidase. Note: 0% is about no effect; nearly all actives have a fitted effect of over 65% in size. The note with it: 145M-Twi-hGALC-G270D cells (Twitcher mouse brain line with human GALC G270D), HMU-beta-Gal fluorescence, 48 h; series mostly up to 57.5 µM; activation: at the top concentration. Put shortly: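 Fluorogenic HMU-b-Gal hydrolysis (0.1 mM final, pH 5.2 citrate-phosphate with 1 mg/mL sodium taurocholate; carbonate stop buffer) measures mutant GALC activity after compound treatment of live 145M-Twi Twitcher brain cells stably carrying human GALC-G270D, with wild-type GALC line alongside; activation sought.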
Chain of UniProt P54803 (P54803 whole entry, looked up): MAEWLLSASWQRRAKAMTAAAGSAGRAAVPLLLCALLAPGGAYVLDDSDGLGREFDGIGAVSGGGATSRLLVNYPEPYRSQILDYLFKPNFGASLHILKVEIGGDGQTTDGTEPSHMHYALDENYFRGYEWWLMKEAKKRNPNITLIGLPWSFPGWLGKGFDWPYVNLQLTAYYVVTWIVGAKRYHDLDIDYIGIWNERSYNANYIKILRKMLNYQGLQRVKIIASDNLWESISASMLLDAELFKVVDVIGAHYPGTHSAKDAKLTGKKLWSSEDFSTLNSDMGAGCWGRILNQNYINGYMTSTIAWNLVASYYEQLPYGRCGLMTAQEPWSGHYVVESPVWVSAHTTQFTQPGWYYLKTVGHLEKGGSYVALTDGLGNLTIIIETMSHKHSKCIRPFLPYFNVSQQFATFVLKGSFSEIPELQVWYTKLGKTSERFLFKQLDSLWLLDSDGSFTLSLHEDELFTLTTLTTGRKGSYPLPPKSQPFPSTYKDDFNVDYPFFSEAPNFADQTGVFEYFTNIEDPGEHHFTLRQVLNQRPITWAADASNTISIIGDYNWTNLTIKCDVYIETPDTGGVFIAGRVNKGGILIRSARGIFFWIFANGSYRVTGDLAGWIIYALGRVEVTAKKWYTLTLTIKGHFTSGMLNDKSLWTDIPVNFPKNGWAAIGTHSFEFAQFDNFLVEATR
As to `COc1ccc2c(c1)CC(C(=O)NCCCN1CCN(c3cccc(Cl)c3)CC1)CO2` (stereo not drawn), the “activation” value is inactive: -10.9%.
The same measure for `CCOC(=O)c1sc2ccccc2c1S(=O)(=O)N1CCN(c2cccc(C)c2)C(C)C1` (stereo not drawn): inactive: -5.15%.
With `COc1cccc2c1ncc1c(-c3ccc(C)cc3)nn(-c3ccc(F)cc3)c12`, the “activation” value was inactive: 5.21%.
With `Cc1cccc(-c2nnn3c2nc(NCc2ccc4c(c2)OCO4)c2ccccc23)c1` the figure was inactive: -20.4%; with `CC(C)COc1ccc(C(=O)N2CCCCC2CCN2CCCCC2)cc1` (stereo not drawn), inactive: -9.28%.
The same measure for `COc1ccc(CCNC(=O)c2cnn(-c3cccc(C)c3)c2C2CCN(C(=O)OC(C)(C)C)CC2)cc1OC`: inactive: -4.36%.
On to `CC(=O)c1ccc(NC(=O)c2noc3c2CSc2ccccc2-3)cc1`, for which the “activation” value was inactive: -7.65%.
The same measure for `COc1cccc(NC(=O)CCc2c(C)nc3nc(CNC(=O)c4cccc(F)c4)nn3c2C)c1`: inactive: -21.2%; for `COc1ccc(-c2cnc(C)o2)cc1S(=O)(=O)Nc1c(C)cc(C)cc1C`: inactive: -5.35%.
With `CC(c1ccccc1)n1cc2c(c1-c1ccccc1Br)c(=O)n(C)c(=O)n2C` (stereo not drawn) the figure was inactive: -15.7%; with `Cc1ccc2c(c1)-c1c(cnc3cc(-c4ccc(F)cc4)nn13)CO2`, inactive: -6.48%.
With `CCc1ccc(C2=C(C)C(N3CCC(C(=O)NCc4ccccc4)CC3)=NS2(=O)=O)cc1` the figure was inactive: -4.52%; with `Cc1ccc(CNC(=O)c2c(O)nc3cc(C)ccn3c2=O)cc1`, inactive: 6.96%.
With `Cc1ccc(Cl)cc1N1CCN(C(=O)c2c(C)oc3ncnc(N4CCCCC4)c23)CC1`, the “activation” value is inactive: -6.05%.
The same measure for `CCc1ccc(CN2CCc3nc(N4CCN(c5ccccc5F)CC4)ncc3C2)cc1`: inactive: -18.9%; for `CCCCOc1cccc(C(=O)Nc2cc(NC(=O)c3ccco3)ccc2OC)c1`: inactive: -10.5%; for `COc1ccc(-n2nc(CCC(=O)N(C)O)cc2-c2ccc(Cl)cc2)cc1`: inactive: -9.8%.
Turning to `CCc1cc(C(=O)Nc2sc(C)c(CC)c2C#N)no1`, the “activation” value was inactive: -17.6%.
With `C#CCOc1ccc(-c2nnc(Nc3ccc(NC(C)=O)cc3)c3ccccc23)cc1` the figure was inactive: -11.1%; with `Cc1cc(F)ccc1NC(=O)C1CCCN(S(=O)(=O)c2ccc3c(c2)CCCC(=O)N3)C1` (stereo not drawn), inactive: -18.2%.
The same measure for `COc1ccc(Cn2c(SCC(N)=O)nc3c(sc4ccccc43)c2=O)cc1`: inactive: -15.9%; for `Cc1cnc2c(c1SCC(=O)Nc1ccc(F)cc1F)c(=O)n(C)c(=O)n2C`: inactive: -3.36%; for `COc1ccc(S(=O)(=O)c2c(Nc3ccc(C)cc3)sc(C(=O)c3ccc4c(c3)OCO4)c2N)cc1`: inactive: -15%.
Regarding `COc1ccc(N(Cc2cccs2)C(=O)COc2ccc(C(C)C)cc2)cc1`, the “activation” value was inactive: -26.6%.
With `CCCCN(CCCC)CCNC(=O)c1cc(-c2cccnc2)nc2ccc(S(=O)(=O)N3CCC(C)CC3)cc12` the figure was inactive: -14%; with `O=C(Cc1ccc(NC(=O)N2CCCCc3ccccc32)cc1)NCc1ccccc1`, inactive: -7.89%; with `CCOc1ccc2nc(N3CCCC(C(=O)Nc4cccc(Cl)c4C)C3)sc2c1` (stereo not drawn), inactive: -11.7%.
In the case of `CCc1cc2c(cc3c(=O)n(CC(=O)N4CCCCC4)ncn32)s1`, the “activation” value was inactive: -9.29%.
Take `Cc1ccc(Cl)cc1NC(=O)CN1C(=O)COc2ccc(S(=O)(=O)N3CCOCC3)cc21`: the “activation” value is inactive: -13.1%.
The same measure for `COc1ccccc1CNC(=O)c1ccc(-c2nc(CS(=O)c3ccccc3)c(C)o2)cc1` (stereo not drawn): inactive: -21.4%; for `CCCCn1cc(S(=O)(=O)c2ccc(F)cc2)c(=O)c2ccccc21`: inactive: -7.5%.
In the case of `COc1cccc(CNC(=O)CN2C(=O)CSc3c2c(C)nn3-c2ccccc2)c1`, the “activation” value is inactive: -7.64%.
The same measure for `Cc1ccc2[nH]c(CSc3nnc(COc4ccccc4C)n3C)cc(=O)c2c1`: inactive: -2.51%; for `Cc1ccc(-n2c(=O)c3ccc(C(=O)NCc4ccccc4Cl)cc3n(CC(=O)Nc3cccc(F)c3)c2=O)cc1`: inactive: -0.116%; for `CN(C)c1ccc(CN(CC2CCCO2)C(=O)c2ccc(Br)cc2)cc1` (stereo not drawn): inactive: -9.3%.
With `CCOc1ccc(N2C(=O)N(Cc3c(F)cccc3Cl)c3ccccc3S2(=O)=O)cc1`, the “activation” value is inactive: -10.8%.
As for `Cc1ccc2[nH]c3c(=O)n(CC(=O)N4CCN(c5cccc(C(F)(F)F)c5)CC4)ncc3c2c1`, the “activation” value was inactive: -8.03%.
Take `CCCCOc1ccc(NC(=O)Cn2nnnc2-c2ccccc2F)cc1`: the “activation” value was inactive: -6.54%.
The same measure for `Cc1cc2c(cc1C)NC(CC(=O)Nc1ccccc1SC(F)(F)F)C(=O)N2` (stereo not drawn): inactive: -7.85%; for `CC(C)NC(=O)c1ccc(C=O)cc1`: inactive: -5.19%; for `O=C(COCc1cc(-c2cccs2)on1)Nc1ccc(OC(F)(F)F)cc1`: inactive: -22.1%.
The same measure for `COc1cc(OC)c(NC(=O)Cn2cnc3sc(C)c(S(=O)(=O)N4CCN(C)CC4)c3c2=O)cc1Cl`: inactive: -0.131%; for `Cc1ccc(S(=O)(=O)c2nc(-c3ccco3)oc2SCC(C)C)cc1`: inactive: -6.93%; for `COc1ccc2ncc3c(-c4ccc(C)c(C)c4)nn(CC(=O)NC4CCCCC4)c3c2c1`: inactive: -5.2%.
Consider `CCc1ccc(NC(=O)c2nn(-c3ccc(C)cc3)c(=O)n(C)c2=O)cc1`, for which the “activation” value is inactive: -7.7%.
In the case of `CC(C)(C)OC(=O)N1CCC(c2c(C(=O)Nc3ccc4c(c3)OCCO4)cnn2-c2ccccc2)CC1`, the “activation” value was inactive: -10.5%.
Take `CCc1ccccc1NC(=O)CN1C(=O)c2cccnc2Oc2ccc(Cl)cc21`: the “activation” value is inactive: 1.5%.
With `CCOc1ccc(Br)cc1CNCCSc1nnnn1-c1ccccc1`, the “activation” value is inactive: -17.6%.
